Laboratory results published in PMC2602735.
Results are given in words; binding and its absence hold for the method and conditions named. Some binding calls cover weakened binding; strength is not graded here.

The chains behind the UniProt entries cited, without tags or fusion partners. Residues count along the entry.
UniProt Q03591, residues 19-330: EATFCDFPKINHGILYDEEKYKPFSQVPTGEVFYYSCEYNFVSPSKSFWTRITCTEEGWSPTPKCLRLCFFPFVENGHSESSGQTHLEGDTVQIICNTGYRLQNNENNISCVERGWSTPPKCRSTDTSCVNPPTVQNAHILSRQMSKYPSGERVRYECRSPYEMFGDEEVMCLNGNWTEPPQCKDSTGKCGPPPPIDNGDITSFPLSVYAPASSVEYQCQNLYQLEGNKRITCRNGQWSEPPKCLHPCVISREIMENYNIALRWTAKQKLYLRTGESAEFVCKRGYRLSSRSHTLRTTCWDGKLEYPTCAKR
UniProt P08603, residues 19-1231: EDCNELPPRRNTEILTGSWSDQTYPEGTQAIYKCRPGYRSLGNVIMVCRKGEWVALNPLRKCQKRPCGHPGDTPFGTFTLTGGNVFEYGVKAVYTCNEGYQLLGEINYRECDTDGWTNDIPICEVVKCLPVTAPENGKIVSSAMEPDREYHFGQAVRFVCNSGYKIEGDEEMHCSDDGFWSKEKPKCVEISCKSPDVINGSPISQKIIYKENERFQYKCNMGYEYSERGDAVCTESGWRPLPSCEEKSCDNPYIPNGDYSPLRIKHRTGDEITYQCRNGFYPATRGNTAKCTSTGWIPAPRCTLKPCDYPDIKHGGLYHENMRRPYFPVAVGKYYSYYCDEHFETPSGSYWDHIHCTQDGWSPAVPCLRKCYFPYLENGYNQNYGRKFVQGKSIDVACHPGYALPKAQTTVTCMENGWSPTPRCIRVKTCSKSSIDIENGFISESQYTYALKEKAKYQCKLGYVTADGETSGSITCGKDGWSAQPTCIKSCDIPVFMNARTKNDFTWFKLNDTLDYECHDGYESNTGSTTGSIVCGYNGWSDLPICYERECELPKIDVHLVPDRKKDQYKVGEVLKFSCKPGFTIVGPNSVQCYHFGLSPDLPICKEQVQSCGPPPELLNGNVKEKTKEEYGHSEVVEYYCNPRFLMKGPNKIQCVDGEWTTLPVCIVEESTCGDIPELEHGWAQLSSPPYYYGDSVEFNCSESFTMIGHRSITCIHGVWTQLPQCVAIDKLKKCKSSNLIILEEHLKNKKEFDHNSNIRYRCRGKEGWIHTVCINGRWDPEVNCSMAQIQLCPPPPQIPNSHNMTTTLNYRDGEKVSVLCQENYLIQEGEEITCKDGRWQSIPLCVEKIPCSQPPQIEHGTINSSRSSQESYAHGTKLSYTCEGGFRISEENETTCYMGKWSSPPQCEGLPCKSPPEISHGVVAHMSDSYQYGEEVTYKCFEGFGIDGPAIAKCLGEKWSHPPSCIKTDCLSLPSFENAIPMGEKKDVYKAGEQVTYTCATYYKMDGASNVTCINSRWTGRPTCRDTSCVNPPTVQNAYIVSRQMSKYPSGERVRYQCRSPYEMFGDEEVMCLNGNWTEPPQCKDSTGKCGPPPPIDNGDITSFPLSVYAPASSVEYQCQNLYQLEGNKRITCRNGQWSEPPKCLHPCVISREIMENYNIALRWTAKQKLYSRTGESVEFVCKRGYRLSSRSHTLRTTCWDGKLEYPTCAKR

What was measured:
[1] = molecular target: Sbi-I (amino acids 42–94) (Staphylococcus aureus (entry printed for strain Newman)) (UniProt A6QJQ7); experiment: combined ELISA and Western blot approach (CEWA); only the target purified
[2] = molecular target: Sbi-IV (amino acids 197–266) (Staphylococcus aureus (entry printed for strain Newman)) (UniProt A6QJQ7); experiment: as above
[3] = molecular target: Sbi-E (amino acids 28–266) (Staphylococcus aureus (entry printed for strain Newman)) (UniProt A6QJQ7); experiment: as above
[4] = molecular target: Sbi-I (amino acids 42–94) (Staphylococcus aureus (entry printed for strain Newman)) (UniProt A6QJQ7); experiment: combined ELISA and Western blot approach (CEWA); Sbi constructs, CRASP-1, CRASP-5 (10 µg/ml) immobilized; Factor H (5 µg/ml) together with C3b (10 µg/ml) or C3d (2,6 µg/ml), over night at 4°C; eluted, Western blot for Factor H; both purified
[5] = molecular target: Sbi-I (amino acids 42–94) (Staphylococcus aureus (entry printed for strain Newman)) (UniProt A6QJQ7); experiment: SPR; Biacore 3000; Sbi-E, Sbi-I or Sbi-III/IV immobilized; Factor H in combination with C3b or C3d as analyte, identical concentrations; both purified
[6] = molecular target: Sbi-I (amino acids 42–94) (Staphylococcus aureus (entry printed for strain Newman)) (UniProt A6QJQ7); experiment: combined ELISA and Western blot approach (CEWA); both purified

Substance | binding [1] | binding [2] | binding [3] | binding [4] | binding [5] | binding [6]
Factor H related protein 1 (FHR-1) (from UniProt Q03591 19-330) | no binding (tested: NHS diluted 1∶10) | binds | binds |  |  | 
complement Factor H (from UniProt P08603 19-1231) | no binding (tested: NHS diluted 1∶10) |  |  | no binding (tested: 5 µg/ml) | no binding | no binding (tested: 5 µg/ml)
